Assay results reported in article PMC12040169 (PLOS Biology, 2025).
The other results are listed elsewhere or left out.

The molecules below were run on T1, C. trachomatis L2/434/Bu expressing GFP (CTL2-GFP). Conditions: total inclusion area; 28.5 h, 10 µM; inhibitor.
T1 construct: L2/434/Bu GFP intracellular growth in HeLa cells
Parameters: species or system HeLa; C. trachomatis total inclusion area by high-content imaging, normalised to DMSO
In short: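 Imaging read-out: GFP inclusions and Hoechst nuclei captured by high-content imaging after fixation. Inclusion area/number = chlamydial growth; nuclei count = host cell viability. MIC calculated per earlier method.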

Compound	% of control remaining
CC1(C)Sc2nc3ccccc3n2C1=O [CBK022971]	45.7152
CONc1nc(/N=C/N(C)C)nc2c1ncn2C1CC(O)C(CO)O1 (stereo not drawn) [CBK201335]	141.467
CC(Cc1cnccn1)NC(=O)Nc1cc(N2CCOCC2)ccc1Cl (stereo not drawn) [CBK306954]	44.2545
COC(=O)c1ccc2c(=O)n(CCN3CCOCC3)c(=S)[nH]c2c1 [CBK268553]	64.4344
COC(=O)/N=C1/Nc2ccccc2CN1CC(N)=O [CBK007160]	82.2965
N=c1n(-c2ccccc2)c(O)c(C(c2ccncc2)c2c(O)n(-c3ccccc3)c(=N)n(-c3ccccc3)c2=O)c(=O)n1-c1ccccc1 (stereo not drawn) [CBK261438]	110.818
COc1ccc(C(=O)NC(=S)Nc2ccc(N3CCN(C)CC3)cc2)cc1[N+](=O)[O-] [CBK266098C]	90.9601
CC(=O)Nc1ccc(-c2ccc(COC3CCN(C(=O)c4ccc(Cl)c(Cl)c4)CC3)cc2)cc1 [CBK149215]	80.2874
CCCS(=O)(=O)n1c(=O)n(CCc2c[nH]c3ccccc23)c2ccccc21 [CBK106515]	134.384
Cc1nc(Cl)c(C(=O)NCCc2ccc(S(=O)(=O)NC(=O)NC3CCCCC3)cc2)nc1C [CBK011777]	80.1447
O=C1CN(Cc2ccccc2)C(=O)N1CC1CCCCC1 [CBK162367]	72.4099
CC(C)c1nc(-c2cc3ccccc3[nH]c2=O)no1 [CBK287964]	104.623
Cc1ccc(C(C)(C)CC(C)NCc2cccc(C(F)(F)F)c2)o1 (stereo not drawn) [CBK262872]	93.7107
COc1ccc(-c2cc(C(=O)NCC(O)c3ccc4ccccc4c3)cnc2-c2ccccc2)cn1 (stereo not drawn) [CBK037562]	77.2212
CC1(C)[C@H](Cc2cc(CC3CCCCC3)on2)C[C@@H]1NC(=O)C1CCCC1 [CBK289256]	103.027
COC(=O)c1cn([C@H]2CO[C@H]3[C@@H]2OC[C@@H]3NC(=O)C2CCCCC2)nn1 [CBK289496]	98.3998
Cc1ccn(CCNC(=O)c2cccc(N3CCCC3=O)c2)n1 [CBK282642]	116.325
CCn1ncnc1CN1CCN(Cc2ccccc2CO)CC1 [CBK306717]	84.5768
COc1ccc(-c2ccc(=O)n(CC(=O)NC(C(=O)O)c3ccccc3)n2)c(F)c1 (stereo not drawn) [CBK286769]	61.7956
O=C(c1ccc(OC(F)(F)F)cc1)N1CCC2(CCN(C(=O)c3ccoc3)C2)C1 (stereo not drawn) [CBK131735]	104.068

Compound	% of control remaining
COc1ccc([C@@]23CCC(NC(=O)CCc4cccnc4)C[C@@H]2N(C)CC3)cc1OC (stereo partly drawn) [CBK003770]	74.6835
O=C(NCc1ccc(Cl)cc1)N1CCN(CCc2ccccc2)CC1 [CBK158922]	65.4086
CC(C)c1ccc(S(=O)(=O)Nc2ccc(C(=O)O)c(O)c2)cc1 [CBK299819]	108.042
O=C1NCCc2c1[nH]c1ccccc21 [CBK101624]	63.8465
CN1CCN(S(=O)(=O)c2ccc(Oc3ccc([N+](=O)[O-])cc3)cc2)CC1 [CBK262248]	50.2667
FC(F)(F)c1ccnc(OCc2ccc(Cl)c(Cl)c2)c1 [CBK116623]	88.7144
C=Cn1ncc(CN2C3CCC2CC(O)(c2ccc(F)cc2)C3)c1C (stereo not drawn) [CBK282738]	113.437
Cc1ccc(NC(=O)OCCN2CCN(C)CC2)c(C)n1 [CBK200135]	93.1923
O=C(CSc1nnc(-c2ccncc2)n1Cc1ccccc1)Nc1ccc(Cl)cc1 [CBK269346]	115.822
COC(=O)CSc1nnc(CSc2cc(C)nc(N3CCOCC3)n2)o1 [CBK007059]	88.1753
O=C(O)c1ccc(-c2ccc(OC(F)(F)F)cc2)nc1 [CBK160173T]	83.9319
c1ccc2c(CCNc3nccnc3-c3ccoc3)c[nH]c2c1 [CBK036743]	73.3471
O=C(c1cncs1)N1CCn2nc(C(O)Cc3ccccc3)cc2C1 (stereo not drawn) [CBK306754]	76.6053
O=C1N[C@@H](CC2CCCCC2)C(=O)N2CCN(C(=O)c3cccc(F)c3)C[C@H]12 [CBK289599]	96.1462
CC1CCc2nc(NC(=O)C3CN(S(=O)(=O)c4ccc(F)cc4)C3)sc2C1 (stereo not drawn) [CBK286004]	94.2831
O=C(Nc1ccccc1-c1ccccc1)c1cc(-c2ccncc2)nc2ccc(Cl)cc12 [CBK267759]	93.9179
Cc1ccc2[nH]c3c(c2c1)CC(NS(=O)(=O)c1c(N)noc1C)CC3 (stereo not drawn) [CBK306270]	24.4988
O=C(O)c1ccc(CN2CCOCC2)o1 [CBK261426C]	93.0567
COC(=O)c1cccc(CN2CCC3(CC2)OCCc2c3[nH]c3ccc(F)cc23)c1 [CBK040326]	93.241
